The record followed here is patent US11760795B2, “Monoclonal antibodies to growth and differentiation factor 15 (GDF-15), and uses thereof for treating cancer cachexia and cancer” (JULIUS-MAXIMILIANS-UNIVERSITÄT WÜRZBURG, priority 2014, dated 2023).

A short description of data set [1]: Study No. 140123: body weight of UACC-257 inoculated mice (cancer-induced weight loss). It is filed as in vivo, Balb/c^nu/nu mice. As to conditions: 38 days. The procedure:
FIG. 5: Treatment of cancer cachexia with anti-GDF-15 antibodies. […] The changes of the body weight are depicted in percent as compared to the starting body weight on day 0, for a period of 38 days.
(§1) Treatment of cancer-induced weight loss with anti-GDF-15 antibodies. In the underlying animal study No. 140123, 10 Balb/c^nu/nu mice per treatment group were subcutaneously inoculated with 10×10^6 UACC-257 cells per animal in a 1:1 volume ratio with matrigel (100 μl cells+100 μl matrigel). The animals were treated on the same day with the respective antibodies, as indicated below:
The study was carried out in a double-blinded manner for the treatment with the antibodies and for the treatment with PBS.

The nature of data set [2]: Study No. 140123: feed consumption of UACC-257 inoculated mice. It is filed as in vivo, Balb/c^nu/nu mice. The procedure: as §1
In addition to evaluating the mean body weight of the mice, the feed consumption of the mice was evaluated by pairwise comparisons of the study groups (Table 1).

A short description of data set [3]: Gel electrophoresis and coomassie staining of antibodies used in study No. 140123. Format: physicochemical. The procedure: FIG. 6: Coomassie stain of antibodies used in the study No. 140123.
The quality of the humanized anti-GDF-15 antibody B1-23-H1L5 used in the study was tested by using gel electrophoresis and coomassie staining of the antibodies (see FIG. 6).

A further data set has as its target T1, hrGDF-15 (Homo sapiens, UniProt Q99988).
T1 sequence (Q99988 with tags, fused parts or gaps limits assumed): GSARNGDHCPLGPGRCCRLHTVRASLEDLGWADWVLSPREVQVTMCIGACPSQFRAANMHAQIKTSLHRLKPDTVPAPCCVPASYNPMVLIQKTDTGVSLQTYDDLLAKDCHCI
The data set is described as follows: Colorimetric ELISA binding to coated hrGDF-15. As to conditions: serial 1:3 dilution from 333 ng/ml; in comparison to B12. Here is the method:
Additionally, by using a colorimetric assay, it was confirmed that all anti-GDF-15 antibodies used in the study bound to GDF-15 in a concentration-dependent manner. To determine the binding of B1-23 antibody variants to GDF-15, a […] ELISA experiment was performed. […] Therefore, Maxisorp 96 well plates (Nunc) were coated with hrGDF-15 (25 ng protein per well, 50 μl volume) over night at 4° C. The following day, plates were washed to remove unbound protein (3 times with 150 μl of PBS 0.05% Tween®) and non-specific binding sites were blocked with 150 μl of PBS 1% BSA for 2 hours at room temperature. Again, plates were washed and different variants of B1-23 test antibodies were applied (50 μl volume). To inquire specificity of the antibody binding, endpoint dilution was performed starting from 333 ng/ml and 1:3 serial dilution. As background control, PBS 1% BSA was applied. Following binding for 1 hour at room temperature, wells were washed as described above. As secondary antibody HRP conjugated Anti-human IgG (Life technologies, 1:5000) was applied for 1 hour at room temperature. Wells were washed as described above to remove unbound secondary antibody. […] For analysis, optical density at 450 nm was quantified using the ELISA reader (Tecan Sunrise) and the corresponding Magellan software.

A short description of data set [4]: Aggregation study: shaking 48 hours at room temperature, visual analysis for precipitates. It is filed as physicochemical. As to conditions: PBS, no stabilizing proteins for H1L5. Here is the method: In order to test the aggregation properties of anti-GDF-15 antibodies, antibody samples were shaken for 48 hours at room temperature in microcentrifuge tubes, and subsequently, the tubes were visually analyzed for aggregated antibody precipitates.

A short description of data set [5]: Freeze/thaw and dilution experiments. It is filed as physicochemical.
Data set [6] is described as follows: Protein A elution at physiological pH and 10 fold concentration via spin columns, turbidity. It is filed as physicochemical. As to conditions: TRIS Buffer at physiological pH, from 0.5 mg/ml. The procedure: FIG. 7: Improved solubility of the chimeric and the humanized antibody at physiological pH.
5 mg of antibody (B1-23, chimeric B1-23=“ChimB1-23”, H1L5) were loaded on Proteus™ protein A columns, eluted and collected in a TRIS Buffer at physiological pH. After elution, the quality of the purified antibodies was assessed by Coomassie Brilliant Blue gel analysis. The concentration of the eluted antibodies was measured photometrically as well as in a Bradford assay (Roti-Quant, Carl Roth, Karlsruhe, Germany). […] The antibodies were then 10 fold concentrated via spin columns (Centricon, MWCO 30). […] All concentrated eluates were then centrifuged for 5 min at 13000 rpm in order to precipitate antibody aggregates. The remaining amount of soluble antibodies was finally determined via Bradford assay from the supernatant.

B1: H1L5: humanized anti-human GDF-15 mAb-B1-23; heavy chain SEQ ID No: 27, light chain SEQ ID No: 30 (antibody)
heavy: QITLKESGPTLVKPTQTLTLTCTFSGFSLSTSGMGVSWIRQPPGKGLEWLAHIYWDDDKRYNPTLKSRLTITKDPSKNQVVLTMTNMDPVDTATYYCARSSYGAMDYWGQGTLVTVSS[in this place human IgG1 constant region]
light: DIVLTQSPSFLSASVGDRVTITCKASQNVGTNVAWFQQKPGKSPKALIYSASYRYSGVPDRFTGSGSGTEFTLTISSLQPEDFAAYFCQQYNNFPYTFGGGTKLEIKRAPSVFIFPPSDEQLKSGTASVVCLLNNFYPREAKVQWKVDNALQSGNSQESVTEQDSKDSTYSLSSTLTLSKADYEKHKVYACEVTHQGLSSPVTKSFNRGEC
modifications: amino acid sequence of the heavy chain of the H1L5 humanized B1-23 anti-GDF-15 antibody; amino acid sequence of the light chain of the H1L5 humanized B1-23 anti-GDF-15 antibody
B1: the “body weight change compared to day 0” value in data set [1] is recorded as “increase in body weight”. The “Feed consumption per mouse and day” value in data set [2] (average over day 17-34 intervals, with standard deviation) came out at 3.4 ± 0.2 g. Besides, the “feed consumption compared with groups which did not receive the anti-GDF-15 antibodies” value in data set [2] (mouse, in vivo) is “significantly higher”. Further, the “band appearance / aggregation in coomassie gel” value in data set [3] is “not prone to aggregation”. Also, in the data set with hrGDF-15, the “binding to GDF-15 in ELISA” value is “clearly concentration-dependent binding”. The tendency to aggregate entry in data set [4] is on record as “no tendency to aggregate”. Besides, the “aggregation during dilution steps or freeze/thaw cycles” value in data set [5] is listed as “did not aggregate”. In addition, the “aggregation after 10 fold concentration” value in data set [6] is “no signs of aggregation”.
